# According to PubChem BioAssay AID1346428 (National Center for Advancing Translational Sciences (NCATS), 2018):
# Among all 48,000 compounds or so, about 1,200 (2.5%) were called active. Roughly 2% stayed inconclusive and do not appear here.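 Rule for the calls: active = activation of at least 60% and not above a set upper limit (about 1 call in 100 departs from these limits); inconclusive = activation of 40% to 60%, or above that upper limit; inactive = activation under 40%.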 Some of the results follow.
# Molecular target: Probable G-protein coupled receptor 32 (Homo sapiens) (UniProt O75388)
# Sequence of UniProt O75388 (O75388 whole entry, looked up): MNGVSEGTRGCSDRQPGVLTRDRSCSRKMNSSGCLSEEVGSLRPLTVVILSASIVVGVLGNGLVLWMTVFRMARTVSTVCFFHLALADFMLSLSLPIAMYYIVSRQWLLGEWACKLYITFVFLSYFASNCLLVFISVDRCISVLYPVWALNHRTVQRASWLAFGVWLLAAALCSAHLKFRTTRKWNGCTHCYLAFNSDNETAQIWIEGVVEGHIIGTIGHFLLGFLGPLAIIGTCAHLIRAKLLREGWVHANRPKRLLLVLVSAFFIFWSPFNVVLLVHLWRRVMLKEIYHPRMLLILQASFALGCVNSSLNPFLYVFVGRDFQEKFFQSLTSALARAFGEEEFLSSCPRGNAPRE
# Experiment: qHTS for Agonists of Human Resolvin D1 Receptor DRV1; note: 0% is about no effect
# Settings: CHO-K1 GPR32 beta-arrestin PathHunter luminescence, 90 min; at 76.9 µM; stronger effect = higher value; zero percent set by DMSO-only wells
# In short: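 Readings come from a cell-based beta-arrestin complementation format: CHO-K1 GPR32 stable cells (2,500/well) treated 90 min with compounds, then beta-Gal substrate added for 1 h before chemiluminescence imaging.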
row,SMILES,activation
1,Cc1ccc(Cl)cc1N1CCN(c2ncnc3onc(-c4ccc(F)cc4)c23)CC1,inactive: 7.48%
2,O=C(c1ccc(CS(=O)(=O)c2c(Cl)cccc2Cl)o1)N1CCN(c2ccccc2)CC1,inactive: -3.65%
3,Cc1ccc(-n2c(SCC(N)=O)nc3c([nH]c4ccccc43)c2=O)cc1,inactive: -17.2%
4,Cc1cncn1CCc1nc2c3ccccc3nc(SCC(=O)Nc3ccccc3F)n2n1,inactive: -16.7%
5,CC(C)(C)c1ccc(-c2noc(CCC(=O)Nc3cccc(Cl)c3)n2)cc1,inactive: 17.1%
6,Cc1ccc(-c2nnc(Nc3cccc(C(F)(F)F)c3)c3ccccc23)cc1S(=O)(=O)N1CCOCC1,inactive: -17.7%
7,CCOC(=O)N1CCN(C(=O)CN(c2cc(C)ccc2OC)S(=O)(=O)c2ccc(C)cc2)CC1,inactive: -7.78%
8,CCOc1ccccc1CNC(=O)C1CCCN(S(=O)(=O)c2ccc3c(ccn3C)c2)C1 (stereo not drawn),inactive: -10.5%
9,CCc1ccc(-n2nc(C)c3c(C(=O)Nc4cc(C)ccc4C)cc(C)nc32)cc1,inactive: 5.71%
10,COc1ccccc1N1CCN(c2cc(C)nc3nc(-c4ccc(Cl)cc4)nn23)CC1,inactive: -17.7%
11,COc1ccc(OC)c(S(=O)(=O)NCCc2csc3nc(-c4ccccc4)nn23)c1,inactive: -6.28%
12,Cc1ccc(NC(=O)c2cc(S(=O)(=O)N3CCCC3)c[nH]2)c(C)c1,inactive: -17.1%
13,Cc1cccc(N2CCN(C(=O)c3ccc4c(c3)c(C)c(C)n4C)CC2C)c1 (stereo not drawn),inactive: -18.2%
14,COc1nc(-c2ccc(C)cc2)ccc1-c1noc(-c2ccc(C(C)(C)C)cc2)n1,inactive: 9.01%
15,COC(=O)c1sc2cccc(F)c2c1S(=O)(=O)N1CCN(c2ccc(C)cc2C)CC1,inactive: -36.8%
16,CC1CCN(S(=O)(=O)c2nnc(NC(=O)c3cccc(F)c3)s2)CC1,inactive: 42.7%
17,CC(C)NC[C@H](O)COc1cccc2ccccc12,inactive: -2.66%
18,CCOC(=O)c1c(NC(=O)COc2ccc(Cl)cc2C)sc(C(C)=O)c1C,inactive: -9.85%
19,CCN1CCN(c2cc(C)c3cc(NC(=O)c4ccccc4F)ccc3n2)CC1,inactive: -6.41%
20,CCc1c(C)c2ccc(O)c(CN3CCN(c4ccccc4)CC3)c2oc1=O,inactive: -21.1%
21,CC(=O)N1CCc2cc(Br)cc(S(=O)(=O)CCC(=O)Nc3ccc(C)cc3Cl)c21,inactive: 4.82%

row,SMILES,activation
1,CCOc1ccc2oc(=O)cc(CN3CCN(c4ccc(Cl)cc4)CC3)c2c1,inactive: -13.4%
2,Cc1c(C(=O)N(Cc2ccc(N(C)C)cc2)CC2CCCO2)oc2ccc(Br)cc12 (stereo not drawn),inactive: -29.2%
3,CCc1cccc(C)c1NC(=O)CN(C)S(=O)(=O)c1cccc2nsnc12,inactive: 1.47%
4,Cc1ccc(N2CCN(c3nc4c(S(=O)(=O)c5ccc(C)c(C)c5)nnn4c4ccccc34)CC2)c(C)c1,inactive: -10.9%
5,COc1ccc(C)cc1NC(=O)N1CCC(CN2CCC(C)CC2)CC1,inactive: 5.24%
6,Cc1ccc(S(=O)(=O)c2cn(C)c3cc(N4CCCCC4)c(F)cc3c2=O)cc1,inactive: 6.6%
7,CCCCn1c(SCC(=O)Nc2ccc(F)cc2)nc2c(sc3ccccc32)c1=O,inactive: 7.66%
8,Fc1ccc(Nc2nc(Nc3ccc(F)cc3)nc(N3CCOCC3)n2)cc1,inactive: -13.1%
9,CC(C)c1ccc(NC(=O)Cn2nnc(C(=O)NCc3cccs3)c2N)cc1,inactive: -1.88%
10,C[C@H](NC(CCc1ccccc1)C(=O)O)C(=O)N1CCC[C@H]1C(=O)O (stereo partly drawn),inactive: -12.8%
11,CCOc1ccc(-c2cc(C(=O)N3CCN(c4cccc(C(F)(F)F)c4)CC3)c3ccccc3n2)cc1,inactive: -33.7%
12,COc1ccc(NC(=O)C(=O)NCC2(c3ccccc3)CCCC2)c(OC)c1,inactive: -26%
13,CNC(=O)CSc1nnc(NC(=O)Nc2ccccc2)s1,inactive: 0.773%
14,Cc1ccc2oc3c(c(=O)c2c1)C(c1ccc(OCC(N)=O)cc1)N(Cc1ccc2c(c1)OCO2)C3=O (stereo not drawn),inactive: 3.59%
15,CCOc1ccccc1N(CC(=O)Nc1ccc(OC)c(Cl)c1)S(=O)(=O)c1ccccc1,inactive: -6.36%
16,O=C(CSc1nnc(-c2ccc(Br)cc2)n1-c1ccccc1)c1ccccc1,inactive: -8.45%
17,Cc1ccc(N(CC(C)C)S(=O)(=O)c2nnc(NC(=O)c3cccs3)s2)cc1,inactive: 43.5%
18,COc1ccc(C(=O)NCC(c2ccc3c(c2)OCO3)N2CCN(c3ccc(F)cc3)CC2)cc1 (stereo not drawn),inactive: -28.3%
19,CCOCN(C(=O)Cn1cnc2cc(C)c(C)cc21)c1c(C)cccc1CC,inactive: -3.5%
20,CCc1ccccc1NC(=O)c1cc(-c2ccc3c(c2)OCO3)on1,inactive: 7.72%
21,CCOc1ccc(/C=C/c2nc(C#N)c(N3CCN(c4ccccc4)CC3)o2)cc1,inactive: -10.5%

row,SMILES,activation
1,COc1ccc(CNC(=O)CN2C(=O)COc3ccc(S(=O)(=O)N4CCOCC4)cc32)cc1,inactive: -19.7%
2,COc1ccc(-c2cn3nc(N4CCC(C(=O)Nc5ccc(C)cc5)CC4)sc3n2)cc1,inactive: -4.1%
3,Cc1cccc(Oc2coc3cc(OCC(=O)NC4CCCCC4)ccc3c2=O)c1,inactive: -11.3%
4,COc1ccccc1CNC(=O)Cn1c(=O)ccc2cc(S(=O)(=O)N3CCCC3)ccc21,inactive: 1.65%
5,CCOc1ccc(N(CC)S(=O)(=O)N2CCCC(C(=O)NCCc3ccccc3OC)C2)cc1 (stereo not drawn),inactive: -28%
6,CC1CCCCN1C(=O)CSc1nnc(-c2ccccc2Cl)o1 (stereo not drawn),inactive: -1.28%
7,O=C(Nc1ccc(C(=O)N2CCN(c3ccc(Cl)cc3)CC2)cc1)c1nsc2ccccc12,inactive: -34.2%
8,O=c1c(-c2ccc(O)cc2)coc2cc(O)ccc12,inactive: -4.83%
9,COc1ccc(Br)cc1CNC(=O)C1COc2ccccc2C1 (stereo not drawn),inactive: -19.7%
10,Cc1ccc2oc(-c3cc(NC(=O)c4cccs4)cc(C)c3O)nc2c1,inactive: -2.8%
11,COc1ccc(C(=O)N2c3ccc(C)cc3C(C)(c3ccccc3)CC2(C)C)cc1 (stereo not drawn),inactive: -59.2%
12,CCc1ccc(CNC(=O)c2c(C)oc3ncn(CC(C)C)c(=O)c23)cc1,inactive: -18.5%
13,COc1cc(Cl)c(C)cc1NC(=O)Cn1ncc2c3ccccc3n(Cc3ccccc3)c2c1=O,inactive: -8.63%
14,O=C(NCCCc1nc2ccccc2n1Cc1ccc(Cl)cc1Cl)c1ccco1,active: 96.8%
15,CN(C/C=C/c1ccccc1)Cc1cccc2ccccc12,active: 117%
16,CCN(CC)CCCNC(=O)CN1N=C(c2ccc(OC)cc2)CCC1=O,inactive: -4.3%
17,COc1ccc(CNC(=O)CCCn2c(=O)c3cccn3c3cccnc32)cc1,inactive: -18.5%
18,CC(C)c1ccc(OCC(O)CN2CCN(c3ccc(F)cc3)CC2)cc1 (stereo not drawn),inactive: -8.02%
19,COc1ccccc1CN1CCC(CNC(=O)c2cnn(-c3ccc(Cl)cc3)c2C2CCN(C(=O)OC(C)(C)C)CC2)CC1,inactive: -21.7%
20,CCc1ccc(S(=O)(=O)c2c(C(=O)c3ccccc3)cnc3ccc(CC)cc23)cc1,inactive: -26.7%
21,O=S(=O)(c1cccc(F)c1)N1CCC(Oc2ccc(-n3cnnn3)cc2)CC1,inactive: 2.5%

row,SMILES,activation
1,CCOCCCNC(=O)c1c(NC(=O)Cc2coc3ccc(C)cc23)sc2c1CCC2,inactive: -9.87%
2,Cc1ccccc1NC(=O)c1ccc(Cl)c(S(=O)(=O)N2CCCCCC2)c1,inactive: -1.43%
3,CCCCNS(=O)(=O)c1ccc2nc(-c3cccnc3)cc(C(=O)NCCOC)c2c1,inactive: -9.15%
4,COc1ccc(NC(=O)CSc2nccn2Cc2ccco2)c(OC)c1,inactive: -8.3%
5,COc1ccc(OC)c(NC(=O)Cc2c(C(=O)O)n(C)c3ccc(C)cc23)c1,inactive: -0.474%
6,O=C1c2[nH]nc(-c3ccccc3O)c2C(c2ccc(F)cc2)N1CCO (stereo not drawn),inactive: -8.72%
7,COc1ccc(-c2nc(SCC(=O)N3CCCCC3C)n[nH]2)cc1 (stereo not drawn),inactive: -6.79%
8,CCOC(=O)c1cc(-c2ccc(OC)cc2)n(CCC(=O)Nc2nc3ccc(OCC)cc3s2)c1C,inactive: -33.9%
9,COC(=O)c1cnn(-c2ccc(C(=O)Nc3cc(OC)c(OC)c(OC)c3)cc2)c1N,inactive: 34.5%
10,CCOC(=O)c1c(C)sc(-c2c(-c3ccc(OC)c(F)c3)[nH]c3[nH]c(=O)[nH]c(=O)c23)c1O,inactive: -19.4%
11,CC1=C(C(=O)Nc2ccc(Cl)cc2)C(c2ccc(C(F)(F)F)cc2)n2nnnc2N1 (stereo not drawn),active: 65%
12,CCc1ccccc1NC(=O)CSc1ncc(S(=O)(=O)c2ccc(C(C)C)cc2)c(N)n1,inactive: -32%
13,Cc1ccc(CN(Cc2ccco2)C(=O)c2ccc(Cl)cc2)o1,inactive: -17.7%
14,CCc1ccc(-n2c(=O)c3c(C)c(C(=O)N(C)C)sc3n(Cc3ccccc3C#N)c2=O)cc1,inactive: 0.29%
15,CCc1cccc(C)c1Nc1c(-c2cccc(O)c2)nc2nc(C)cc(C)n12,inactive: -25.5%
16,COCCCNC(=O)c1ccc(Cn2c(SCc3cccc(C)c3)nc3cccnc32)cc1,inactive: -18.5%
17,Cc1ccc(C)c(N2CCN(C(=O)c3cc(S(=O)(=O)N4CCCCCC4)cn3C)CC2)c1,inactive: -14.2%
18,Cc1ccc(S(=O)(=O)NCC2CCC(C(=O)NCCc3ccc(Cl)cc3)CC2)cc1 (stereo not drawn),inactive: -4.92%
19,CCN(CC)S(=O)(=O)c1ccc2oc(C(=O)NCc3ccccc3OC)c(C)c2c1,inactive: -23.4%
20,CCOc1ccc(N(CC)S(=O)(=O)N2CCCC(C(=O)NCCc3ccc(OC)cc3)C2)cc1 (stereo not drawn),inactive: 9.97%
